Results: paper PMC4336329 (PLoS ONE, 2015)
Screen size: about 310,000 compounds; about 14,000 (4.5%) showed an effect of 50% or more. Effects have a minus sign here. The list shows a part of the results.

Target: human ether-à-go-go-related gene (hERG) potassium channel (human, UniProt Q12809)
Experiment: primary screen, population patch clamp on CHO cells stably expressing hERG
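Further: peak tail current of the secondary pulse compared with the same well before compound.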

Chain of human ether-à-go-go-related gene (hERG) potassium channel (Q12809 whole entry, looked up): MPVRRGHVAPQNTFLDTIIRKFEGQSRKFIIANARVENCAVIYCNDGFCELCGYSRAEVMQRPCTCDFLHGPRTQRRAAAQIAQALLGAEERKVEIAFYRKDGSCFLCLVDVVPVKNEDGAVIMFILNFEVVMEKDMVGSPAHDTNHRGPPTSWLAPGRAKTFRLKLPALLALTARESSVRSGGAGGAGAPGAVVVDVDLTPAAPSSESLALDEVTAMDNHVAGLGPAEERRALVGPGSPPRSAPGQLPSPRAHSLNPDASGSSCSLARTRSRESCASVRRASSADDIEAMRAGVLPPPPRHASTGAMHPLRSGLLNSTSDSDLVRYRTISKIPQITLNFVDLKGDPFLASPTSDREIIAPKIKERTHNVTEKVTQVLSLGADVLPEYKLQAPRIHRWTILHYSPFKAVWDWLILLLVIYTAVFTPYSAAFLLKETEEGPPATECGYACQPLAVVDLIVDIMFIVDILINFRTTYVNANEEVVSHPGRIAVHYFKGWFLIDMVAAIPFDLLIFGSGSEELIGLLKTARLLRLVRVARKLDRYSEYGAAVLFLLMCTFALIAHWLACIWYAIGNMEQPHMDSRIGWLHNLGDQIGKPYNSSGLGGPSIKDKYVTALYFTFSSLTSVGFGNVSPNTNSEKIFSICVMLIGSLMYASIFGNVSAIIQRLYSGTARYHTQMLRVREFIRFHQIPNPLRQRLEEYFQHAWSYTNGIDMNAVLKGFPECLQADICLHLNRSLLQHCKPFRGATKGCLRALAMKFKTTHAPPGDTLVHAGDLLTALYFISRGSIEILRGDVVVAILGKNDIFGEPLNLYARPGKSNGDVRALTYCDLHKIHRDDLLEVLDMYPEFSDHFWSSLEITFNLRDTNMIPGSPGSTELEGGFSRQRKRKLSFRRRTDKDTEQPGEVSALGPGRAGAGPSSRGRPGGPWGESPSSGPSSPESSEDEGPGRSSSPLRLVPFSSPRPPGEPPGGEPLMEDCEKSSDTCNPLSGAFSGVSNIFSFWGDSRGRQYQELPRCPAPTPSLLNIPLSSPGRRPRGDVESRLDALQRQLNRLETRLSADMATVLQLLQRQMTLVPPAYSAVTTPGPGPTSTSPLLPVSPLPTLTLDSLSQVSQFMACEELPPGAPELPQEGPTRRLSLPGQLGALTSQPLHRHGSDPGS

Point of comparison: `CCCCNC(=O)COC(=O)c1ccc(NS(=O)(=O)c2ccc3c(c2)OCCO3)cc1`, “hERG current change (%, negative = inhibition) at 10uM” value -4.15%. Against it:
- O=C(O)c1cccc(NC(=S)NC(=O)c2ccc(-c3ccccc3)cc2)c1 — higher, 24.7%
- Cc1sc2nc(CN3CCOCC3)nc(NS(=O)(=O)c3ccccc3)c2c1C — higher, 9.1%
- Cc1cc(C(=O)NNC(=S)Nc2ccccc2)nn1C — higher, 9.4%
- COc1ccc(NC(=S)NCCc2ccc(S(N)(=O)=O)cc2)c(OC)c1 — higher, 9.47%
- CC(C(O)c1ccc(O)cc1)N1CCC(Cc2ccccc2)CC1.O=C(O)C(O)C(O)C(=O)O (centres unmarked) — lower, -71.4%
- CCOc1cccc(NC(=O)Cc2cccs2)c1 — higher, -0.0914%
- CN(C)c1ccc(/C=C(\NC(=O)c2ccccc2)C(=O)NCc2ccncc2)cc1 — lower, -12.8%
- Cc1nn(CCC(=O)N2CCN(S(=O)(=O)c3ccc(Cl)cc3)CC2)c(C)c1C — higher, -3.75%
- COc1ccc(CN(C)CC(=O)NC(=O)NCc2ccccc2)cc1OC — higher, 14.8%
- COC(=O)c1ccc(OCC(O)CN(CC(C)C)CC(C)C)cc1 (centres unmarked) — lower, -4.37%
- CCOC(=O)N/N=C/c1cc(C)n(-c2ccccc2)c1C — higher, 8.33%
- CCOc1ccccc1C(=O)OC(C)C(=O)Nc1ccc(S(=O)(=O)N2CCCC2)cc1 (centres unmarked) — lower, -15.9%
- C/C(=N\N=C(N)N)c1ccc(Cl)c(Cl)c1.CC(=O)O — lower, -13.3%
- NC(=O)/C(=N\O)c1ccccc1 — lower, -20.3%
- Cc1ccc(C)n1-c1ccc(N2CCOCC2)c(Br)c1 — higher, 1.65%
- CC(C(=O)Nc1nccs1)N1C(=O)C2CC=CCC2C1=O (centres unmarked) — higher, 1.3%
- O=C(c1cccn2c(=O)c3ccc(Cl)cc3nc12)N1CCC2(CC1)OCCO2 — lower, -11.2%
- Nc1ccc(S(=O)(=O)Nc2nccc(/C=C/c3ccccc3F)n2)cc1 — higher, 23.4%
- Cc1cc(NC(=O)COC(=O)C2CC(=O)N(c3ccc(C)c(Cl)c3)C2)no1 (centres unmarked) — higher, 5.29%
- COc1cnc(-c2ccccn2)nc1Oc1ccc(Cl)cc1 — higher, -0.157%
- O=C(Nc1ccc(Cl)c(Cl)c1)Nc1ccccc1NS(=O)(=O)c1cccs1 — higher, 23.8%
- C1CN(CC23CC4CC(CC(C4)C2)C3)CCO1.Cl — higher, 18.2%
- Cc1cccc(/C(N)=N/OC(=O)c2ccncc2)c1 — higher, 4.17%
- Cc1ccccc1OCC(O)CN1CCN(CC(O)COc2ccccc2C)CC1 (centres unmarked) — lower, -81.6%
- COCCN1C(=O)c2oc3ccccc3c(=O)c2C1c1ccc(OC)c(OC)c1 (centres unmarked) — higher, -0.211%
- CC(C)(C)OC(=O)NC1CCN(S(=O)(=O)c2ccc3c(c2)OCCO3)CC1 — higher, 2.78%
- N=C1c2ccccc2CN1c1ccc(S(=O)(=O)N2CCCCC2)cc1 — lower, -62.5%
- Cc1cc(C)cc(NC(=O)CSc2ccc(-c3cccs3)nn2)c1 — lower, -52.2%
- CCOC(=O)CSc1nnc(-c2ccccc2)c(=O)[nH]1 — lower, -15.8%
- Nn1c(SCc2csc(-c3ccccc3)n2)nnc1-c1cccs1 — higher, 16.3%
- COc1ccc(CCN=C(N)NS(=O)(=O)c2cccs2)cc1 — higher, 6.94%
- COc1cc(C(=O)N(Cc2cc3cc(C)ccc3[nH]c2=O)CC2CCCO2)cc(OC)c1OC (centres unmarked) — higher, 5.2%
- O=C(CSc1n[nH]c(-c2cccs2)n1)N1CCN(S(=O)(=O)c2ccc3ccccc3c2)CC1 — lower, -4.67%
- Cn1cc(Br)c(-c2cccc(N3C(=O)CCCC3=O)c2)n1 — higher, 9%
- CC1Cc2ccccc2N1C(=O)c1ccc2c(c1)OCO2 (centres unmarked) — higher, 5.67%
- CN1CCN(C(=O)c2sc(=S)n(-c3ccccc3)c2N)CC1 — lower, -10.2%
- Cc1sc2nc(CN3CCCC3)nc(N3CCN(C(=O)c4ccco4)CC3)c2c1C — lower, -68.6%
- COc1ccc(C2N(C(=O)CN3CCOCC3)CCN2S(=O)(=O)c2ccccc2)cc1 (centres unmarked) — lower, -9.02%
- CC(=O)Nc1cccc(OCC(=O)NS(=O)(=O)c2ccc(C)cc2)c1 — higher, 1.18%
- COc1ccc(/C=C/C(=O)OCC(=O)NCCC2=CCCCC2)cc1 — higher, 18%
- Cc1ccc2c(c1)c1cccc3c1n2CCN3CCC(N)=O — higher, 12.1%
- O=C(N/N=C/c1cc2cc3c(cc2nc1Cl)OCO3)c1ccncc1 — higher, 16.6%
- CCC/C(=N\NC(=O)c1ccco1)c1ccc(Cl)s1 — higher, 2.73%
